Where two headings read alike, the source gives them in different places. For at least one compound, name, drawing or mass did not settle the structure. Bridge positions count the residues as written; N and C are the ends. Square brackets hold non-standard residues; d marks the D form. Peptide text beside a SMILES is read from it. Oic = O=C(O)[C@@H]1C[C@@H]2CCCC[C@@H]2N1; 1Nal = N[C@@H](Cc1cccc2ccccc12)C(=O)O; hArg = N=C(N)NCCCC[C@H](N)C(=O)O; Tic = O=C(O)[C@@H]1Cc2ccccc2CN1; Cit = NC(=O)NCCC[C@H](N)C(=O)O
Biological target: T1, CGRP1 receptor (Homo sapiens, UniProt O60894+Q16602)
T1 construct: SK-N-MC cells express CRLR and RAMP1, which form CGRP1 receptor; endogenous in cells; host or cells: SK-N-MC human neuroblastoma cells
T1 sequence (Q16602 23-461): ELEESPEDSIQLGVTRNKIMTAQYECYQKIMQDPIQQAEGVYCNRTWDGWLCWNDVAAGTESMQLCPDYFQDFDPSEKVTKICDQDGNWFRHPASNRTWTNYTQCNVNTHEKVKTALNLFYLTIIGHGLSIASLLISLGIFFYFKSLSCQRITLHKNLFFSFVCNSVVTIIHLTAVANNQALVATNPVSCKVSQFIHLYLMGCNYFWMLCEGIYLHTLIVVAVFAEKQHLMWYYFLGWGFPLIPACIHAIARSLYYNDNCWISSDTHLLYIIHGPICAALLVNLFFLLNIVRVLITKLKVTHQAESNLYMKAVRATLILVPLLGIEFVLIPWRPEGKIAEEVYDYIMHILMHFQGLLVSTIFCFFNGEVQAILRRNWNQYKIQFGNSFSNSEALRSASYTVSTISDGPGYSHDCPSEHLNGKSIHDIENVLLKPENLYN
T1 sequence (O60894 27-148): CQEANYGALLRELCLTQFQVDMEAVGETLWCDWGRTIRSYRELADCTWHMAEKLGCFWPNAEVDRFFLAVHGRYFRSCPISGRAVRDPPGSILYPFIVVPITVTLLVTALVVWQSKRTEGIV
Assay: in vitro CGRP1 receptor mediated cAMP assay in SK-N-MC cells
Type: cell-based
Procedure: The in vitro cAMP assay employed a human neuroblastoma-derived cell line (SK-N-MC). SK-N-MC cells express CRLR and RAMP1, which form CGRP1 receptor. CGRP1 receptor is a G-protein coupled receptor linked to the stimulatory G-protein, Gs. […] Briefly, two days before the assay, the cells were plated in 96-well plates in growth medium. On the day of the assay cells were rinsed with PBS followed by the addition of 60 μl of plasma free medium for 15 minutes at room temperature. […] The medium was then removed and the cells were lysed with 100 μl lysis buffer for 30 minutes at 37° C. for 30 minutes. Using a Tropix ELISA kit (Applied Biosystems, Foster City, Calif.), a cAMP-AP conjugate was diluted (1:100) and added (30 μl) to each well of a 96-well ELISA plate. An aliquot of the lysis buffer from the cell plate was then added to the ELISA plate followed by an aliquot of the cAMP antibody. This mixture was incubated for 1 hour at room temperature with gentle shaking. The ELISA plate was then washed 6× with wash buffer followed by the additions of a substrate enhancer. This mixture was incubated for 30 minutes at room temperature and then read on a MicroBeta Jet or EnVision plate reader. The results were analyzed using Prism (GraphPad).

[1] = Table 2C, unconjugated peptide, read-out: Peptide IC50

Row | Molecule | IC50 (Table 2A, read-out: IC50) [nM] | IC50 [1] [nM] | also measured
1 | CC(=O)N[C@@H](Cc1c[nH]c2ccccc12)C(=O)N[C@H](C(=O)N[C@H](C(=O)N[C@@H](Cc1c[nH]cn1)C(=O)N[C@@H](CCCNC(N)=O)C(=O)N[C@@H](CC(C)C)C(=O)N[C@@H](C)C(=O)NCC(=O)N[C@H]1CCC(=O)NCCCC[C@@H](C(=O)NCC(=O)NCC(=O)N[C@H](C(=O)N[C@H](C(=O)N[C@@H](CCCCNC(=N)N)C(=O)N[C@@H](CCCCN)C(=O)N[C@@H](CC(N)=O)C(=O)N[C@@H](Cc2ccccc2)C(=O)N[C@H](C(=O)N2CCC[C@H]2C(=O)N[C@H](C(=O)N[C@@H](CC(=O)O)C(=O)N[C@H](C(=O)NCC(=O)N2[C@H](C(=O)N[C@@H](Cc3ccccc3)C(=O)N[C@@H](C)C(=O)N[C@@H](Cc3ccccc3)C(N)=O)C[C@@H]3CCCC[C@@H]32)C(C)C)[C@@H](C)O)C(C)C)C(C)C)C(C)C)NC(=O)[C@H](CCCNC(N)=O)NC(=O)[C@H](CO)NC(=O)[C@H](CC(C)C)NC1=O)[C@@H](C)O)C(C)C [compound 129] (Ac-WVTH[Cit]LAGELS[Cit]KGGVV[hArg]KNFVPTDVG[Oic]FAF-NH2; lactam 9-13) | 1.33 |  | 
2 | CC(=O)N[C@@H](Cc1c[nH]c2ccccc12)C(=O)N[C@H](C(=O)N[C@H](C(=O)N[C@@H](Cc1c[nH]cn1)C(=O)N[C@@H](CCCNC(N)=O)C(=O)N[C@@H](CC(C)C)C(=O)N[C@@H](C)C(=O)NCC(=O)N[C@@H](CC(C)C)C(=O)N[C@@H](CC(C)C)C(=O)N[C@@H](CO)C(=O)N[C@@H](CCCNC(N)=O)C(=O)N[C@@H](CO)C(=O)NCC(=O)NCC(=O)N[C@H](C(=O)N[C@H](C(=O)N[C@@H](CCCCNC(=N)N)C(=O)N[C@@H](CCCCN)C(=O)N[C@@H](CC(N)=O)C(=O)N[C@@H](Cc1ccccc1)C(=O)N[C@H](C(=O)N1CCC[C@H]1C(=O)N[C@H](C(=O)N[C@@H](CC(=O)O)C(=O)N[C@H](C(=O)NCC(=O)N1Cc2ccccc2C[C@H]1C(=O)N[C@@H](Cc1ccccc1)C(=O)N[C@@H](C)C(=O)N[C@@H](Cc1ccccc1)C(N)=O)C(C)C)[C@@H](C)O)C(C)C)C(C)C)C(C)C)[C@@H](C)O)C(C)C [compound 130] | 2.47 |  | 
3 | CC(=O)N[C@@H](Cc1c[nH]c2ccccc12)C(=O)N[C@H](C(=O)N[C@H](C(=O)N[C@@H](Cc1c[nH]cn1)C(=O)N[C@@H](CCCNC(N)=O)C(=O)N[C@@H](CC(C)C)C(=O)N[C@@H](C)C(=O)NCC(=O)N[C@@H](CC(C)C)C(=O)N[C@@H](CC(C)C)C(=O)N[C@@H](CO)C(=O)N[C@@H](CCCNC(N)=O)C(=O)N[C@@H](CO)C(=O)NCC(=O)NCC(=O)N[C@H](C(=O)N[C@H](C(=O)N[C@@H](CCCNC(=N)N)C(=O)N[C@@H](CCCCN)C(=O)N[C@@H](CC(N)=O)C(=O)N[C@@H](Cc1ccccc1)C(=O)N[C@H](C(=O)N1CCC[C@H]1C(=O)N[C@H](C(=O)N[C@@H](CC(=O)O)C(=O)N[C@H](C(=O)NCC(=O)N1Cc2ccccc2C[C@H]1C(=O)N[C@@H](Cc1ccccc1)C(=O)N[C@@H](C)C(=O)N[C@@H](Cc1ccccc1)C(N)=O)C(C)C)[C@@H](C)O)C(C)C)C(C)C)C(C)C)[C@@H](C)O)C(C)C [compound 140] (Ac-WVTH[Cit]LAGLLS[Cit]SGGVVRKNFVPTDVG[Tic]FAF-NH2) | 3.02 |  | 
4 | CC(=O)N[C@@H](Cc1c[nH]c2ccccc12)C(=O)N[C@H](C(=O)N[C@H](C(=O)N[C@@H](Cc1c[nH]cn1)C(=O)N[C@@H](CCCNC(N)=O)C(=O)N[C@@H](CC(C)C)C(=O)N[C@@H](C)C(=O)NCC(=O)N[C@@H](CC(C)C)C(=O)N[C@@H](CC(C)C)C(=O)N[C@@H](CO)C(=O)N[C@@H](CCCNC(N)=O)C(=O)N[C@@H](CO)C(=O)NCC(=O)NCC(=O)N[C@H](C(=O)N[C@H](C(=O)N[C@@H](CCCNC(=N)N)C(=O)N[C@@H](CCCCN)C(=O)N[C@@H](CC(N)=O)C(=O)N[C@@H](Cc1ccccc1)C(=O)N[C@H](C(=O)N1CCC[C@H]1C(=O)N[C@H](C(=O)N[C@@H](CC(=O)O)C(=O)N[C@H](C(=O)NCC(=O)N1Cc2ccccc2C[C@H]1C(=O)N[C@@H](Cc1ccccc1)C(=O)N[C@@H](C)C(=O)N[C@@H](Cc1ccccc1)C(N)=O)C(C)C)[C@@H](C)O)C(C)C)C(C)C)C(C)C)[C@@H](C)O)C(C)C [compound 141] (Ac-WVTH[Cit]LAGLLS[Cit]SGGVVRKNFVPTDVG[Tic]FAF-NH2) | 4.32 |  | 
5 | CC(=O)N[C@@H](Cc1c[nH]c2ccccc12)C(=O)N[C@H](C(=O)N[C@H](C(=O)N[C@@H](Cc1c[nH]cn1)C(=O)N[C@@H](CCCNC(N)=O)C(=O)N[C@@H](CC(C)C)C(=O)N[C@@H](C)C(=O)NCC(=O)N[C@@H](CC(C)C)C(=O)N[C@@H](CC(C)C)C(=O)N[C@@H](CO)C(=O)N[C@@H](CCCNC(N)=O)C(=O)N[C@@H](CO)C(=O)NCC(=O)NCC(=O)N[C@H](C(=O)N[C@H](C(=O)N[C@@H](CCCCNC(=N)N)C(=O)N[C@@H](CCCCN)C(=O)N[C@@H](CC(N)=O)C(=O)N[C@@H](Cc1ccccc1)C(=O)N[C@H](C(=O)N1CCC[C@H]1C(=O)N[C@H](C(=O)N[C@@H](CC(=O)O)C(=O)N[C@H](C(=O)NCC(=O)N1Cc2ccccc2C[C@H]1C(=O)N[C@@H](Cc1ccccc1)C(=O)N[C@@H](C)C(=O)N[C@@H](Cc1ccccc1)C(N)=O)C(C)C)[C@@H](C)O)C(C)C)C(C)C)C(C)C)[C@@H](C)O)C(C)C [compound 142] | 19.7 |  | 
6 | CC(=O)N[C@@H](Cc1c[nH]c2ccccc12)C(=O)N[C@H](C(=O)N[C@H](C(=O)N[C@@H](Cc1c[nH]cn1)C(=O)N[C@@H](CCCNC(N)=O)C(=O)N[C@@H](CC(C)C)C(=O)N[C@@H](C)C(=O)NCC(=O)N[C@@H](CC(C)C)C(=O)N[C@@H](CC(C)C)C(=O)N[C@@H](CO)C(=O)N[C@@H](CCCNC(N)=O)C(=O)N[C@@H](CO)C(=O)NCC(=O)NCC(=O)N[C@H](C(=O)N[C@H](C(=O)N[C@@H](CCCCNC(=N)N)C(=O)N[C@@H](CCCCN)C(=O)N[C@@H](CC(N)=O)C(=O)N[C@@H](Cc1ccccc1)C(=O)N[C@H](C(=O)N1CCC[C@H]1C(=O)N[C@H](C(=O)N[C@@H](CC(=O)O)C(=O)N[C@H](C(=O)NCC(=O)N1Cc2ccccc2C[C@H]1C(=O)N[C@@H](Cc1ccccc1)C(=O)N[C@@H](C)C(=O)N[C@@H](Cc1ccccc1)C(N)=O)C(C)C)[C@@H](C)O)C(C)C)C(C)C)C(C)C)[C@@H](C)O)C(C)C [compound 143] | 8.85 |  | 
7 | CC(=O)N[C@@H](Cc1c[nH]c2ccccc12)C(=O)N[C@H](C(=O)N[C@H]1CCC(=O)NCCCC[C@@H](C(=O)NCC(=O)N[C@@H](CC(C)C)C(=O)N[C@@H](CC(C)C)C(=O)N[C@@H](CO)C(=O)N[C@@H](CCCNC(N)=O)C(=O)N[C@@H](CO)C(=O)NCC(=O)NCC(=O)N[C@H](C(=O)N[C@H](C(=O)N[C@@H](CCCCNC(=N)N)C(=O)N[C@@H](CCCCN)C(=O)N[C@@H](CC(N)=O)C(=O)N[C@@H](Cc2ccccc2)C(=O)N[C@H](C(=O)N2CCC[C@H]2C(=O)N[C@H](C(=O)N[C@@H](CC(=O)O)C(=O)N[C@H](C(=O)NCC(=O)N2CCC[C@H]2C(=O)N[C@@H](Cc2ccccc2)C(=O)N[C@@H](C)C(=O)N[C@@H](Cc2ccccc2)C(N)=O)C(C)C)[C@@H](C)O)C(C)C)C(C)C)C(C)C)NC(=O)[C@H](CC(C)C)NC(=O)[C@H](CCCNC(N)=O)NC(=O)[C@H](Cc2c[nH]cn2)NC1=O)C(C)C [compound 911] (Ac-WVEH[Cit]LKGLLS[Cit]SGGVV[hArg]KNFVPTDVGPFAF-NH2; lactam 3-7) |  | 3.85 | 
8 | CC(=O)N[C@@H](Cc1c[nH]c2ccccc12)C(=O)N[C@H](C(=O)N[C@H](C(=O)N[C@@H](Cc1c[nH]cn1)C(=O)N[C@@H](CCCNC(N)=O)C(=O)N[C@@H](CC(C)C)C(=O)N[C@@H](C)C(=O)NCC(=O)N[C@@H](CC(C)C)C(=O)N[C@@H](CC(C)C)C(=O)N[C@@H](CO)C(=O)N[C@@H](CCCNC(N)=O)C(=O)N[C@@H](CO)C(=O)NCC(=O)NCC(=O)N[C@H](C(=O)N[C@H](C(=O)N[C@@H](CCCCNC(=N)N)C(=O)N[C@@H](CCCCN)C(=O)N[C@@H](CC(N)=O)C(=O)N[C@@H](Cc1ccccc1)C(=O)N[C@H](C(=O)N1CCC[C@H]1C(=O)N[C@H](C(=O)N[C@@H](CC(=O)O)C(=O)N[C@H](C(=O)NCC(=O)N1CCC[C@H]1C(=O)N[C@@H](Cc1cccc2ccccc12)C(=O)N[C@@H](C)C(=O)N[C@@H](Cc1ccccc1)C(N)=O)C(C)C)[C@@H](C)O)C(C)C)C(C)C)C(C)C)[C@@H](C)O)C(C)C [compound 927] (Ac-WVTH[Cit]LAGLLS[Cit]SGGVV[hArg]KNFVPTDVGP[1Nal]AF-NH2) |  | 1.28 | 
9 | CC(=O)N[C@@H](Cc1c[nH]c2ccccc12)C(=O)N[C@H](C(=O)N[C@H](C(=O)N[C@@H](Cc1c[nH]cn1)C(=O)N[C@@H](CCCNC(N)=O)C(=O)N[C@@H](CC(C)C)C(=O)N[C@@H](C)C(=O)NCC(=O)N[C@@H](CC(C)C)C(=O)N[C@@H](CC(C)C)C(=O)N[C@@H](CO)C(=O)N[C@@H](CCCNC(N)=O)C(=O)N[C@@H](CO)C(=O)NCC(=O)NCC(=O)N[C@H](C(=O)N[C@H](C(=O)N[C@@H](CCCCNC(=N)N)C(=O)N[C@@H](CCCCN)C(=O)N[C@@H](CC(N)=O)C(=O)N[C@@H](Cc1ccccc1)C(=O)N[C@H](C(=O)N1CCC[C@H]1C(=O)N[C@H](C(=O)N[C@@H](CC(=O)O)C(=O)N[C@H](C(=O)NCC(=O)N1Cc2ccccc2C[C@H]1C(=O)N[C@@H](Cc1ccccc1)C(=O)N[C@@H](C)C(=O)N[C@@H](Cc1ccccc1)C(N)=O)C(C)C)[C@@H](C)O)C(C)C)C(C)C)C(C)C)[C@@H](C)O)C(C)C [compound 946] |  | 2.47 | 
10 | Ac-WVTHRLAGLLSRSGGVVRCNFVPTDVGPFAF-NH2 [compound 8] |  |  | IC50 (Table 3, unconjugated CGRP peptide analogs, n = 2-4, read-out: IC50): 0.5 nM; IC50 (Table 4, 20 k PEG-conjugated vs unconjugated peptides, n = 2-4, read-out: IC50): 0.5 nM

From patent US8168592B2 (Amgen Inc., priority 2005, dated 2012)
